Laboratory results reported in paper PMC4336329 (PLoS ONE, 2015).
Among all 310,000 compounds or so, about 14,000 (4.5%) showed an effect of 50% or more. The effect is printed as a negative number. The list shows a part of the results.

What follows are molecules tested against human ether-à-go-go-related gene (hERG) potassium channel (human, UniProt Q12809) (assay: primary screen, population patch clamp on CHO cells stably expressing hERG).
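Note: peak tail current of the secondary pulse compared with the same well before compound.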

Sequence of human ether-à-go-go-related gene (hERG) potassium channel (Q12809 whole entry, looked up): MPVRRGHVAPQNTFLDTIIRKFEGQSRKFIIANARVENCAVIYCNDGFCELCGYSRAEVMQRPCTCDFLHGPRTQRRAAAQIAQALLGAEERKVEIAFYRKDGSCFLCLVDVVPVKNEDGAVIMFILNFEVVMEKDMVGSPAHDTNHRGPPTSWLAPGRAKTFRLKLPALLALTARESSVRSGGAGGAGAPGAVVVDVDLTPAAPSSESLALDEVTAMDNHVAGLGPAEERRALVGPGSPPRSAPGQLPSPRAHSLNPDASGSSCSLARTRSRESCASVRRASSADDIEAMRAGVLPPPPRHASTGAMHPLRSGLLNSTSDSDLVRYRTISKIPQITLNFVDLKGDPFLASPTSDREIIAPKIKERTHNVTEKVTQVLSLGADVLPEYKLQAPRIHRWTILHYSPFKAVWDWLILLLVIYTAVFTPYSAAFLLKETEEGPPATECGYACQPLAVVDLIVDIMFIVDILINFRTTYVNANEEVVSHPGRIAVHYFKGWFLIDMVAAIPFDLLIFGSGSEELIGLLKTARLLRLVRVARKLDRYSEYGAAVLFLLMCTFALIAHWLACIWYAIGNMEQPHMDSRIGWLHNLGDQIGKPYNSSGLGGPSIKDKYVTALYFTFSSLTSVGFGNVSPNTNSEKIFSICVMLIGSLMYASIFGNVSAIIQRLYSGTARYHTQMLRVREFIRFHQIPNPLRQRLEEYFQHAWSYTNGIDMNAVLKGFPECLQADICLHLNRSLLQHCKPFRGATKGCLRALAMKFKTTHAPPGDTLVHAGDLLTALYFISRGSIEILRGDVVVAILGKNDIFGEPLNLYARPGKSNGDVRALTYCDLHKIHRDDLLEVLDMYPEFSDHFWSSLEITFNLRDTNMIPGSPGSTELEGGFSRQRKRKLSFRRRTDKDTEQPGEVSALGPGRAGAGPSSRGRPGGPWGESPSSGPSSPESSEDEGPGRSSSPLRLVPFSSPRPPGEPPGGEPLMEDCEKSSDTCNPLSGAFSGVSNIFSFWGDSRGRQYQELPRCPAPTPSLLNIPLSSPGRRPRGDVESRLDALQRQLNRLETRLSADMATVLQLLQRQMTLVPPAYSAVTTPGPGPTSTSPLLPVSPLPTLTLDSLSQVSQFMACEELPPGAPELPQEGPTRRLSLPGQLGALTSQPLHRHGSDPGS

| SMILES | hERG current change (%, negative = inhibition) at 10uM [%] |
| --- | --- |
| O=C(Nc1ccccc1)c1c(O)[nH]c(=S)[nH]c1=O | 16.9 |
| Cc1[nH]c2ccc(C(=O)OC(C)C(=O)N(C)c3ccccc3)cc2c1C (stereo not drawn) | 1.13 |
| CCC(=O)N(Cc1cc2ccccc2[nH]c1=O)c1ccccc1OC | 5.71 |
| O=C(/C=C/c1ccco1)Nc1cccc(S(=O)(=O)N2CCOCC2)c1 | -28.8 |
| CCC1(c2ccccc2)NC(=S)N(c2ccc(C)c(C)c2)N1 (stereo not drawn) | 27.8 |
| CCN(CC)CCCNC(=O)c1cn(-c2cccc(OC)c2)c(=O)c2ccccc12 | -68.5 |
| CC(CNC(=O)COC(=O)c1cccs1)c1ccccc1 (stereo not drawn) | 11.7 |
| Brc1ccc(CSc2nnc(-c3cccnc3)o2)cc1 | 11.8 |
| CC(C)(CN1CCN(C(c2ccccc2)c2ccccc2)CC1)NS(=O)(=O)c1ccccc1 | 1.4 |
| CCOC(=O)c1cnc(SCC(=O)Nc2ccc(NC(C)=O)c(OC)c2)nc1N | 2.44 |
| CC(=O)Nc1nnc(CCS(=O)(=O)c2ccc(C)c(C)c2)s1 | 8.73 |
| Cc1c(O)ccc2c(CN3CCN(CCO)CC3)cc(=O)oc12 | 3.5 |
| O=S(=O)(c1cccc(-c2nnc(-c3ccc(Br)cc3)o2)c1)N1CCCCCC1 | -12 |
| O=c1cc(CSc2nnc(COc3ccccc3)o2)c2ccccc2[nH]1 | -2.29 |
| Cc1ccc(S(=O)(=O)NC(CC(=O)O)c2ccccc2)c(C)c1 (stereo not drawn) | 5.52 |
| Cc1ccc(/C=C/C(=O)O)cc1S(=O)(=O)NC1CCS(=O)(=O)C1 (stereo not drawn) | 19.6 |
| COc1ccc(NC(=O)c2sc3nc(C)nc(N4CCN(c5ccccn5)CC4)c3c2C)cc1Cl | -3.04 |
| CCN(CC)Cc1c(C(=O)OC)nnn1-c1nonc1N | 11.4 |
| COC(=O)c1ccc(NC(=O)CSc2nnc(CNc3ccc(OC)cc3)n2C)cc1 | 9.62 |
| C[C@H](CCCC/C=C/C(=O)O)O[C@@H]1O[C@@H](C)[C@H](O)C[C@H]1O | 11.1 |
| CCN1CCN(CCNC(=O)c2ccc3c(c2)N(Cc2ccc(F)cc2)C(=O)/C(=C/c2ccccc2)S3)CC1 | -42.7 |
| NC(=O)CC(NC(=O)Cc1ccc(Br)cc1)c1ccc(N2CCN(c3ccc(F)cc3)CC2)c([N+](=O)[O-])c1 (stereo not drawn) | -1.81 |
| CC1=NN2C(=N)/C(=C\c3cc(C)n(-c4ccccc4)c3C)C(=O)N=C2S1 | 15.5 |
| CCC(C)c1ccc(-c2cc(C(=O)OCC(=O)Nc3cc(C)on3)c3ccccc3n2)cc1 (stereo not drawn) | 8.08 |
| CC(=O)Nc1ccc(NCN2C(=O)[C@@H]3[C@H]4CC[C@H](C4)[C@@H]3C2=O)cc1 | 0.927 |
| CCCCOc1ccc(NC(=O)CSc2cccc3cccnc23)cc1 | -6.47 |
| COC(=O)c1ccc(Cn2nc(C(F)(F)F)cc2C)cc1 | 2.14 |

| SMILES | hERG current change (%, negative = inhibition) at 10uM [%] |
| --- | --- |
| CCN1CCCC1CNCc1cccc(OC)c1OCc1ccc(F)cc1.Cl (stereo not drawn) | -69.5 |
| CCOC(=O)c1sc(-c2ccccc2)cc1NC(=O)c1ccc(S(=O)(=O)N(CCOC)CCOC)cc1 | 4.24 |
| CCOC(=O)C1=C(COC(=O)c2cc(Br)c(Br)s2)NC(=O)NC1C (stereo not drawn) | -3.78 |
| CCCNC(=O)CS(=O)(=O)c1ccccc1 | 2.32 |
| CCn1nc(C)c(/C=N/NC(=S)Nc2ccc(Cl)cc2Cl)c1C | -0.726 |
| COc1ccc(CC(=O)N/N=C/c2sccc2C)cc1 | 10.7 |
| CC(=O)OC(C(=O)NCCc1ccccc1)c1cccnc1 (stereo not drawn) | 0.852 |
| CCOC(=O)c1ccc(NC(=S)NNC(=O)COC)cc1 | -2.29 |
| COc1ccccc1N1CCN(/N=C/C=C/c2ccccc2[N+](=O)[O-])CC1 | 8.53 |
| COc1ccccc1-c1cc(N)n(S(=O)(=O)c2cccc3nsnc23)n1 | -6.58 |
| CC(=O)Oc1cccc(N2C(=O)c3cccc4c([N+](=O)[O-])ccc(c34)C2=O)c1 | 9.47 |
| O=S(=O)(Nc1ccc2ccccc2c1)c1ccccc1 | 1.5 |
| CCc1cc(=O)oc2cc(C)cc(OCC(=O)NCCCn3ccnc3)c12 | -55.3 |
| CCOC(=O)/C(C#N)=C1\C(=O)N(Cc2ccccc2)c2ccccc21 | 14.4 |
| COCCNC(=O)c1ccc(N2CC3CC(C2)c2cccc(=O)n2C3)c(NC(=O)c2cc(OC)cc(OC)c2)c1 (stereo not drawn) | 25.9 |
| CCC1CCCCN1S(=O)(=O)c1ccc(NC(=O)c2cccnc2)cc1 (stereo not drawn) | -26.8 |
| CCCCn1nnc(NC(=O)c2ccc(-c3cccc(Cl)c3)o2)n1 | -40.8 |
| Cc1ccc(C)c(N2CCN(C(=O)C3CCCCN3S(=O)(=O)c3ccc(F)cc3)CC2)c1 (stereo not drawn) | -4.92 |
| O=S(=O)(c1ccc(N2CCCC2)nc1)N1CCOCC1 | -8.57 |
| Cc1cccc(C(=O)Nc2ccccc2N2CCN(c3ccc(F)cc3)CC2)c1 | 7.68 |
| Cc1ccccc1-[n+]1c(-c2ccccc2)cc(-c2ccccc2)cc1-c1ccccc1.[O-][Cl+3]([O-])([O-])[O-] | -76.3 |
| CCc1ccc(C(=O)c2ccccc2C(=O)O)s1 | 26.6 |
| CSc1nc2c(c(=O)[nH]1)C(c1ccccc1Cl)CC(=O)N2 (stereo not drawn) | 12.8 |
| COc1cc2c(cc1OC)C(SC)=NC(C)(C)C2 | -5.27 |
| N=C1C(=O)OCC1c1cc(Cl)ccc1NC(=O)Nc1ccccc1 (stereo not drawn) | 7.25 |
| COc1ccc(NC(=O)c2cccc(OS(=O)(=O)N(C)C)c2)cc1 | -0.332 |
| COC(=O)c1sccc1NC(=O)Cn1nnc(-c2ccccc2C)n1 | -5.02 |
